The source gives no read counts; variants with many changes may rest on few reads.
B1: CPEB3 Ribozyme (parent)
chain: UAACAGGGGGCCACAGCAGAAGCGUUCACGUCGCAGCCCCUGUCAGAUUCUGGUGAAUCUGCGAAUUCUGCUGUAUAUCUC

Variants of: B1
Test: self-cleavage, relative activity (ratio to wild type); higher = more cleavage; in vitro, sequencing
Summary of the method: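 CPEB3 self-cleaving ribozyme mutant libraries were made by rounds of error-prone PCR, barcoded, and transcribed in vitro with T7 RNA polymerase for 5 hours at 37°C. Cleavage occurred during transcription and a 15 min DNase I step before EDTA stop. RNAs were reverse transcribed with template switching and Illumina-sequenced, with DNA sequencing mapping barcodes to variants. Relative activity is the variant's cleaved/total read fraction divided by wild type's (minimum 5 reads), averaged across three batches.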

**Q.** With UAACAGGGGGCCACGGCAGAAGCGUUCACGUCGCAGCCCGCGUCAGAUUCUGGUGAAUCUGCGGAUUCUGCAGUAUAUCUC [A15G C40G U41C A64G U72A] as the variant, how does the self-cleavage read?
**A.** 0.31

**Q.** For UAACAGGGGGCCACGGCAGAAGCGUUCACGUCGCAGCCCGUGCCAGACUCUGGUGAAUCUGCGAAUUCUGCUGUAUAUCCC [A15G C40G U43C U48C U80C], which self-cleavage is on record?
**A.** 0.32

**Q.** For UAACAGGGGGCCACGGCAGAAGCGUUCACGUCGCAGCCCUUGUCAGAUUCUGGUGUAUCCGCGAAUUCCGCUGUGCAUCUC [A15G C40U A56U U60C U69C A75G U76C], which self-cleavage is on record?
**A.** 0.1

**Q.** Which self-cleavage does the source give for UAACAGGGGGCCACGGCAGAAGCGUUCACGUCGCAGCCCUUGUCAGAUUCUGGUGAAUCUGCGAAUACUGCUGUAUAUCUC [A15G C40U U67A] here?
**A.** 0.11

**Q.** Which self-cleavage does the source give for UAACAGGGGGCCACGGCAGAAGCGUUCACGUCGCAGCCCUUGUCAGAUUCUGGUGAAUCUGCGAAUUCUGCUGUAUAUCCC [A15G C40U U80C] here?
**A.** 0.66

**Q.** With UAACAGGGGGCCACGGCAGAAGCGUUCACGUCGCAGCCCCUGUUAGAUUCUGGAGAAUCUGCGAAUUCUGCUGUAUAUCUC [A15G C44U U54A] as the variant, how does the self-cleavage read?
**A.** 0.28

**Q.** With UAACAGGGGGCCACGGCAGAAGCGUUCACGUCGCAGCCCCUGUCAGAUUACUGUGAAUCCGCGAAUUCUGCUGUAUAUCUC [A15G C50A U51C G52U U60C] as the variant, how does the self-cleavage read?
**A.** 0.23

**Q.** Which self-cleavage does the source give for UAACAGGGGGCCACGGCAGAAGCGUUCACGUCGCAGCCCCUGUCAGAUUGUGGUGAAUCCGCGAAUUCUGCUGUAUAUCUC [A15G C50G U60C] here?
**A.** 0.19

**Q.** With UAACAGGGGGCCACGGCAGAAGCGUUCACGUCGCAGCCCCUGUCAGAUUCUGGUGAAUAUGCGAAUUCCGCUGAAUAUCUC [A15G C59A U69C U74A] as the variant, how does the self-cleavage read?
**A.** 0.16

**Q.** For UAACAGGGGGCCACGGCAGAAGCGUUCACGUCGCAGCCCCUGUCAGAUUCUGGUGAAUCUGUGAGUUCUGCUGUAUAUCCC [A15G C62U A65G U80C], which self-cleavage is on record?
**A.** 0.32

**Q.** Which self-cleavage does the source give for UAACAGGGGGCCACGGCAGAAGCGUUCACGUCGCAGCCCCUGUCAGAUUCUGGUGAAUCUGUGAAUUCUGCUGUAUAUCCC [A15G C62U U80C] here?
**A.** 0.26

**Q.** For UAACAGGGGGCCACGACAGUAGCGUUCUCGUCGCAGCCCCUAUCAGAUUCUGGCGAAUCUGCGAAUUCUGCUGUAUAUCUC [A15G G16A A20U A28U G42A U54C], which self-cleavage is on record?
**A.** 0.02

**Q.** For UAACAGGGGGCCACGACAGAAGCGUUCACGUCGCAGCUCCAGUCAGAUUCUGGUGAAUCUGCGAAUUCUGCUGUAUAUCUC [A15G G16A C38U U41A], which self-cleavage is on record?
**A.** 0.08

**Q.** Which self-cleavage does the source give for UAACAGGGGGCCACGUCAGAGGCGCUCACGUCGCAGCCCCAGACAGAUUCUGGUGAGUCUGCGAAUUCUGCUGUAUAUCUC [A15G G16U A21G U25C U41A U43A A57G] here?
**A.** 0.16

**Q.** Which self-cleavage does the source give for UAACAGGGGGCCACGUCAGAAGCGUUCACGUCGCAGCCCCUGUCAGAUUCUGGUGAAUCUGCGAAUUCUGCUCUAUAUCUC [A15G G16U G73C] here?
**A.** 0.85

**Q.** With UAACAGGGGGCCACGGCAAAAGCGUUCACGUCGCAGCCCCUGUCUGAUUCUGGUGAAUCUGCGAAUUCUGCUGAAUAUCUC [A15G G19A A45U U74A] as the variant, how does the self-cleavage read?
**A.** 0.3

**Q.** With UAACAGGGGGCCACGGCAAAAGCGUUCACGUCGCAGCCCCCGUCAGACUCUGGAGAAUACGCGAAUUCUGCUGUAUAUCUC [A15G G19A U41C U48C U54A C59A U60C] as the variant, how does the self-cleavage read?
**A.** 0.19

**Q.** Which self-cleavage does the source give for UAACAGGGGGCCACGGCACAAGCGUUCACGUCGCAGCCCCCGUCAGAUUCUGGUGAAUCUGCGAAAUCUGCUGUAUACCUC [A15G G19C U41C U66A U78C] here?
**A.** 0.12

**Q.** With UAACAGGGGGCCACGGCAUAAGCGUUCACGUCGCGGCCCCCGUCAGAUUCUGGUGAAUCUGCGAAUUCUGCUGUUUAUAUC [A15G G19U A35G U41C A75U C79A] as the variant, how does the self-cleavage read?
**A.** 0.27

**Q.** For UAACAGGGGGCCACGGCAUAAGCGUUCACGUCGCAGCCCCCGUCAGAUUCUGGUGAAUCCGCGGAUUCUGCUACAUAUCUC [A15G G19U U41C U60C A64G G73A U74C], which self-cleavage is on record?
**A.** 0.07

**Q.** With UAACAGGGGGCCACGGCAGAAACGUUCACGCCGCAGCCCCUGUCAGAUUCUGGUGAAUCUGCGAAUUCUGCUGUUUAUCUC [A15G G22A U31C A75U] as the variant, how does the self-cleavage read?
**A.** 0.31

**Q.** For UAACAGGGGGCCACGGCAGAAACGUUCACGUCGCAGCCCCUGUCAGAUUCUGGUGAAUCUGCGAAUUCUGCUGUAUAUCCC [A15G G22A U80C], which self-cleavage is on record?
**A.** 0.1

**Q.** With UAACAGGGGGCCACGGCAGAACCGUUCACGUCGCAGCCCCUGUCAGAUUCAGGUGAAUCUGCGAAUUCUGCUGUAUAUCAC [A15G G22C U51A U80A] as the variant, how does the self-cleavage read?
**A.** 0.35

**Q.** For UAACAGGGGGCCACGGCAGAACCGUUCACGUCGCAGCCCCUGUCAGAUUCUGGUGAAUCUGCGAAUUCAGCUGUAUAUCAC [A15G G22C U69A U80A], which self-cleavage is on record?
**A.** 0.18

**Q.** For UAACAGGGGGCCACGGCAGAAUCGUCCACGUCGCAGCCCCUGUCGGAUUCUGGUGAAUCUGCGUAUUCUGCUGUAUAUCCC [A15G G22U U26C A45G A64U U80C], which self-cleavage is on record?
**A.** 0.08

**Q.** With UAACAGGGGGCCACGGCAGAAGCAUUCACGUCGCUGCCCCCGUCAGAUUCUGGUGAAUCUGCGAAUUCUGCGGUAUAUCUC [A15G G24A A35U U41C U72G] as the variant, how does the self-cleavage read?
**A.** 0.08

**Q.** With UAACAGGGGGCCACGGCAGAAGCAUUCACGUCGCAGCCCCUGUCAGAUUCUGGUGAUUCUGCGAGUUCUGCUGUAUGUCUC [A15G G24A A57U A65G A77G] as the variant, how does the self-cleavage read?
**A.** 0.08

**Q.** For UAACAGGGGGCCACGGCAGAAGCAUUCACGUCGCAGCUCCUGCCAGAUUCAGGUGGAUCUGCGAGUUCUGCUGUAUAUCUC [A15G G24A C38U U43C U51A A56G A65G], which self-cleavage is on record?
**A.** 0.03

**Q.** With UAACAGGGGGCCACGGCAGAAGCAUUCACGUCACAGCCCCGGUCAGAUUCUGGUGAAUCUGCGAAUUCUGCUAUAUAUCUC [A15G G24A G33A U41G G73A] as the variant, how does the self-cleavage read?
**A.** 0.14

**Q.** For UAACAGGGGGCCACGGCAGAAGCAAUCACGUCGCAGCCCCUGUCAGAUUCUGGUGAAUCUGCGAAUUCUGCUGUAUAUCUC [A15G G24A U25A], which self-cleavage is on record?
**A.** 0.05

**Q.** Which self-cleavage does the source give for UAACAGGGGGCCACGGCAGAAGCAUUCACGUCGCAGCCCCUGUCAGAUUCUGGUGAAUCCGCGAAUUCUGCUGUAUAUCUC [A15G G24A U60C] here?
**A.** 0.17

**Q.** For UAACAGGGGGCCACGGCAGAAGCCUUCACGUCGCAGCCCCUGUCAGAUUCUGGUGAACCUGCGAAUUCUGCUGAAUAUCUC [A15G G24C U58C U74A], which self-cleavage is on record?
**A.** 0.07

**Q.** Which self-cleavage does the source give for UAACAGGGGGCCACGGCAGAAGCUUUCACGUCGCAGCCCCCGUCUGAUUCUGGUGAACCUGCGAAUUCUGCUGUAUAUCUC [A15G G24U U41C A45U U58C] here?
**A.** 0.07

**Q.** For UAACAGGGGGCCACGGCAGAAGCGUUCACAUCGCAGCCCCUGUCAGAUUCUGGUGGAUCUGCGAAUUCUGCUGUAUAUCUC [A15G G30A A56G], which self-cleavage is on record?
**A.** 0.4

— the RNAGym collection of RNA variant scans (doi:10.1093/nar/gkz1192)
